Source: the RNAGym collection of RNA variant scans (doi:10.1073/pnas.2313332121)
This sample is rich in variants without activity.

B1: TPR 5TU (parent)
chain: GGAUCUUCUCGAUCUAACAAAAAAGACAAAUCUGCCACAAAGCUUGAGAGCAUCUUCGGAUGCAGAGGCGGCAGCCUUCGGUGGCGCGAUAGCGCCAACGUUCUCAACUAUGACACGCAAAACGCGUGCUCCGUUGAAUGGAGUUUAUCAUG

Variants of: B1
Assay: polymerase ribozyme fitness, log enrichment relative to wild type (log ratio); higher = more active; in vitro selection for triplet polymerase activity
In short: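 Genotype fitness is the logarithm of its enrichment divided by wild-type enrichment, using inverse-variance-weighted averages of replicates. That logarithm is base 2. Enrichment was measured by Illumina sequencing of input and output libraries from one triplicate in vitro selection round, with frozen incubation at −7 °C, on PCR-built, transcribed mutant libraries of each subunit of a heterodimeric triplet polymerase ribozyme, retaining genotypes with ≥10 input reads and ≥1 read per output.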

Variant | polymerase ribozyme fitness (log ratio)
GGAUCUUCUCGAUCUAACAAAAAAGACAAAUUUGCCACAAAGCUUGAGAGCAUCUUCGGAUGCAGAGGCGGCAGUCUUCGGUGGCGCAAUAGCGCCAACGUUCUCAACUAUGACCCGCAAAACGCGUGCUCCGUUGAAUGGAGUUUAUCAUG [C32U C75U G88A A115C] | ≤ -4.2
GGAUCUUCUCGAUCUAACAAAAAAGACAAAUUUGCCACAAAGCUUGAGAGCAUCUUCGGAUGCAGAGGCGGCAGCCUUCGGUGGCGGGAUAGUGCCAACGUUCUCAACUAUGACACGCAAAACGCGUGCUCCGUUGAAUGGAGUUUAUCAGG [C32U C87G C93U U151G] | ≤ -4.2
GGAUCUUCUCGAUCUAACAAAAAAGACAAAUUUGCCACAAAGCUUGAGAGCAUCUUCGGAUGCAGAGGCGGCAGCCUUCGGUGGCGUGAUAGCGCCAACGUUGUCAACUAUGACACGCAAAACGCGUGCUCCGUUGAAUGGAGUUUAUCAUG [C32U C87U C103G] | ≤ -4.2
GGAUCUUCUCGAUCUAACAAAAAAGACAAAUUUGCCACAAAGCUUGAGAGCAUCUUCGCAUGCAGAGGCGGCAGCCUUCGGUGGCGCGAUAGCGCCAACGUUCUCAACUAUGACACGCAAAUCGCGUGCUCCGUUGAAUGGAUUUUAUCAUG [C32U G59C A122U G143U] | ≤ -4.2
GGAUCUUCUCGAUCUAACAAAAAAGACAAAUUUGCCACAAAGCUUGAGAGCAUCUUCGCAUGCAGAGGCGGCAGCAUUCGGUGGCGCGAUAGCGCCAACGUUCUCAACUAUGACACGCAAAACGCGUGCUCCGUUGAAUGGAGUUUAUCAUG [C32U G59C C76A] | ≤ -4.2
GGAUCUUCUCGAUCUAACAAAAAAGACAAAUUUGCCACAAAGCUUGAGAGCAUCUUCGGAUGCAGAGGCGGCAGCCUUCGUUGACGCGAUAGCCCCAACGUUCUCAACUAUGACACGCAAAACGCGUGCUCCGUUGAAUGGAGUUUAUCAUG [C32U G81U G84A G94C] | -3.46
GGAUCUUCUCGAUCUAACAAAAAAGACAAAUUUGCCACAAAGCUUGAGAGCAUCUUCGGAUGCAGAGGCGGCAGCCUUCGGUUGAGCGAUAGCGCCAACGUUCUAUACUAUGACACGCAAAACGCGUGCUGCGUUGAAUGGACUUUAUCAUG [C32U G83U C85A C105A A106U C131G G143C] | ≤ -4.2
GGAUCUUCUCGAUCUAACAAAAAAGACAAAUUUGCCACAAAGCUUGAGAGCAUCUUCGGAUGCAGAGGCGGCAGCCUUCGGUGGCGCGAUAGCGCCAACGUUCUCAACUAUGACACCCAAAACGCGUGCUCCGUUGAAUGGAGUUUACCAUG [C32U G117C U148C] | ≤ -4.2
GGAUCUUCUCGAUCUAACAAAAAAGACAAAUUUGCCACAAAGCAUGAGAGCAUCUUCGGAUGCAGAGGCGGCAGCCUUCGGUGGCUCGAUCGCGCCAACGUUCUCAACUGUGCCACGCAAAACGCGUGCUCCGUUGAAUGGAGUUUAUCAUG [C32U U44A G86U A91C A110G A113C] | ≤ -4.2
GGAUCUUCUCGAUCUAACAAAAAAGACAAAUUUGCCACAAAGCUAGAGAGCAUCUUCGGAUGCAGAGGCGGCAGCCUUCGGUGGCGCGAUAGCGCAAACGUUCUCAACUAUGACACGCAUAACGCGUGCUCCGUUGAAUGGAGUUUAUCAUG [C32U U45A C96A A120U] | ≤ -4.2
GGAUCUUCUCGAUCUAACAAAAAAGACAAAUUUGCCACAAAGCUUGAGAGCAACUUCGGAUGCAGAGGCGGCAGCCUUCGGUGGCGCGAUCGCACCAACGUUCUGAACUAUGACACGCAAUACGCGUGCUCCGUUGAAUGGAGUUUAUCACG [C32U U53A A91C G94A C105G A121U U151C] | ≤ -4.2
GGAUCUUCUCGAUCUAACAAAAAAGACAAAUUUGCCACAAAGCUUGAGAGCAACUUCGGAUGCAGAGGCGGCAGCCUUCGGUGUCGCGAUAGCGCCAACGUUCUCAACUAUGACACGCAGAACGCGUUCUCCGUUGAAUGGUGUUUAUCAUG [C32U U53A G84U A120G G128U A142U] | ≤ -4.2
GGAUCUUCUCGAUCUAACAAAAAAGACAAAUUUGCCACAAAGCUUGAGAGCAUCUUCGGAUGCAGAGGCGGCAGCCUUCGGUGGCGCGAUAGCGCCAACGUUCUCAACUAUGACACGCAAAACGCGUGCUCCGUUGAAUGGAGAUUAUCAUG [C32U U144A] | -2.41
GGAUCUUCUCGAUCUAACAAAAAAGACAAAUCAGCCACAACGCUUGAGAGCAUCUUCGGAUGCAGAGGCGCCAGCCUUCGGGGGCGCGAUUGCGCCAACGUUCUCAACUAUGACACGCAAAACGCGUGCUGCGUUGAAUGGAGUUUAUCAUG [U33A A41C G71C U82G A91U C131G] | ≤ -4.2
GGAUCUUCUCGAUCUAACAAAAAAGACAAAUCAGCCACAACGCUUGAGAGCAUCAUCGGAUGUAGAGGCGACAGCCUUCGGUGGCGCGAUAGCGCCAACGUUCUAAACUAUGACACGCAAAACGCGUGCUCCGUUGAAUGGAGUUUCUCAUG [U33A A41C U55A C63U G71A C105A A147C] | ≤ -4.2
GGAUCUUCUCGAUCUAACAAAAAAGACAAAUCAGCCACAAAGCUUGAGCGCAUCUUCGGAUGCAGAGGCGGCAGCUUUCUGUGGCGCGAUAGCGCCAACGUUCUCAACUAUGACACGCAAAACGCGUGCUCCGUUGAAUGGAGUUUAUGAUG [U33A A49C C76U G80U C149G] | ≤ -4.2
GGAUCUUCUCGAUCUAACAAAAAAGACAAAUCAGCCACAAAGCUUGAGCGCAUCUUCGAAUGCAGAGGCGGCAGCCUUCGUUGGCGCGAUAGCGCCAACGUUCUCAACUAUGACACGCAAAACGCGUGCUCCGUUGAAUGGAGUUUAUCAUG [U33A A49C G59A G81U] | ≤ -4.2
GGAUCUUCUCGAUCUAACAAAAAAGACAAAUCAGCCACAAAGCUUGAGAGCAUCUUCGGAUGCGGAGGCGGCAGCCUUCGGUGGCGCGAUAGCGCCAACGUUCUGAACUAUGACACGCAAAACGCGUGCUCCGUUGAAUGGAGUUUAUCAUG [U33A A64G C105G] | ≤ -4.2
GGAUCUUCUCGAUCUAACAAAAAAGACAAAUCAGCCACAAAGAUUGCGAGCAUCUUCGGAUGCAGAGGCGGCAGCCUUCGGUGGCGCGAUAGCACCAACGUUAUCAACUAUGACACGCAAAACGCGUGCUCCGUUGAAUGGAGUUUAUCAUG [U33A C43A A47C G94A C103A] | ≤ -4.2
